{"source": "PubChem BioAssay AID1347073", "about": "(National Center for Advancing Translational Sciences (NCATS), 2019)", "note": "Among all 45,000 compounds or so, about 200 (0.44%) were called active. Not shown: some 7% with an inconclusive outcome. The call rests on the fitted dose curve; in most records, active means well fitted activation curve with a large enough effect; inconclusive means small, poorly fitted or top-dose-only effect; inactive means no such curve, though single readings can be large or run the other way. This is one part of the list."}
{"experiment": "qHTS of TDP-43 Inhibitors: NCGC Sytravon Library Screen; further: 0% is about no effect; nearly all actives have a fitted effect of over 55% in size", "details": "yeast TDP-43 toxicity rescue, BacTiter-Glo growth, 24 h; series mostly up to 46.1 µM; growth rescue (activation): at the top concentration", "summary_of_the_method": "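TDP-43-expressing yeast, pregrown in raffinose, seeded at OD600 0.02 in galactose medium with compound for 24 hr at 30 deg C. Growth read by BacTiter-Glo luminescence, so rescue of toxicity appears as activation.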"}
{"compound": "CCn1c(SCC(=O)Nc2ccc(C)cc2)nc2nc3c(cc2c1=O)COC(C)(C)C3", "growth rescue (activation)": "inactive: 6.41%"}
{"compound": "COc1ccc(/C=N/NC(=O)c2ccc(O)cc2)cc1CN1CCCc2ccccc21", "growth rescue (activation)": "inactive: 16.6%"}
{"compound": "O=C(/C=C/c1cccc(Cl)c1)N1CCC(Cc2ccccc2)CC1", "growth rescue (activation)": "inactive: 2.6%"}
{"compound": "CC1(C(=O)NS(=O)(=O)c2ccc3c(c2)CCO3)CCN1C(=O)CCC1CCCC1", "note": "(stereo not drawn)", "growth rescue (activation)": "inactive: -6.63%"}
{"compound": "CC1=NN(C(=O)c2ccc(Br)cc2)C(O)(c2ccccc2)C1", "note": "(stereo not drawn)", "growth rescue (activation)": "inactive: -2.36%"}
{"compound": "CCOC(=O)c1sc(NC(=O)C2CC(=O)N(c3ccccc3C)C2)nc1C", "note": "(stereo not drawn)", "growth rescue (activation)": "inactive: 7.91%"}
{"compound": "CSc1ccccc1C(=O)OCC(=O)Nc1cccnc1Cl", "growth rescue (activation)": "inactive: 29.5%"}
{"compound": "COc1ccccc1NC(=O)/C(=C/c1ccncc1)NC(=O)c1ccccc1", "growth rescue (activation)": "inactive: 7.72%"}
{"compound": "Cc1ccc(C#N)c(SCc2ccccc2[N+](=O)[O-])n1", "growth rescue (activation)": "inactive: 11.4%"}
{"compound": "O=C(Nc1cccc2ccccc12)c1ccc(Br)o1", "growth rescue (activation)": "inactive: 32.4%"}
{"compound": "CCC(=O)N(Cc1ccc2c(c1)OCO2)Cc1cc2cc(OC)ccc2[nH]c1=O", "growth rescue (activation)": "inactive: -10.2%"}
{"compound": "C=CCn1c(SCC(=O)Nc2ccc(-c3nc4ccc(C)cc4s3)cc2)nnc1-c1ccncc1", "growth rescue (activation)": "inactive: -13.6%"}
{"compound": "N#C/C(=C\\c1ccc(Cl)cc1)C(=O)Nc1cccnc1", "growth rescue (activation)": "inactive: 3.9%"}
{"compound": "Cc1ccc(C(=O)N(CC#N)CC#N)cc1C", "growth rescue (activation)": "inactive: 8.82%"}
{"compound": "Cc1sc2nc(COC(=O)c3ccc(N4CCCC4)c([N+](=O)[O-])c3)[nH]c(=O)c2c1C", "growth rescue (activation)": "inactive: 14%"}
{"compound": "COc1ccc(CNC(=O)Cn2nc(C)n3cccc3c2=O)cc1", "growth rescue (activation)": "inactive: 8.02%"}
{"compound": "COc1ccc(S(=O)(=O)N2CCC(c3nc4ccccc4[nH]3)CC2)cc1", "growth rescue (activation)": "inactive: 0.409%"}
{"compound": "CN(c1nc2nonc2nc1NC1CC1)C1CCOC1", "note": "(stereo not drawn)", "growth rescue (activation)": "inactive: 8.36%"}
{"compound": "COc1ccc(/C=C/c2nnc(NC(=O)CSc3ccc(Cl)cc3)s2)cc1", "growth rescue (activation)": "inactive: 2.6%"}
{"compound": "CCOc1ccc2nc(NC(=O)c3cccc(-c4cc5ccccc5oc4=O)c3)sc2c1", "growth rescue (activation)": "inactive: 9.74%"}
{"compound": "CC(C)(C)CC(=O)Nc1nnc(SCC(=O)NCc2cccs2)s1", "growth rescue (activation)": "inactive: -2.29%"}
{"compound": "O=C1N=C(N2CCOCC2)S/C1=C/c1ccc(-c2ccc(F)cc2)o1", "growth rescue (activation)": "inactive: 12.6%"}
{"compound": "CC(=O)NC1=NN(C(C)=O)C(C)(c2ccc(Br)cc2)S1", "note": "(stereo not drawn)", "growth rescue (activation)": "inactive: 3.55%"}
{"compound": "O=c1c(-c2ccc(Br)cc2)coc2c(CN3CCOCC3)c(O)ccc12", "growth rescue (activation)": "inactive: 11.7%"}
{"compound": "Cc1ccc2[nH]c(=O)c(CC=C(Cl)Cl)c(C)c2c1", "growth rescue (activation)": "inactive: 4.58%"}
{"compound": "CCOc1ccc(C(=O)NC(=S)NCc2cccnc2)cc1[N+](=O)[O-]", "growth rescue (activation)": "inactive: 26.2%"}
{"compound": "COc1ccc(N(C(=O)CNC(=O)c2ccco2)C(C(=O)NCC2CCCO2)c2ccccc2)c(OC)c1", "note": "(stereo not drawn)", "growth rescue (activation)": "inactive: -15.2%"}
{"compound": "COc1ccc(N(CC(=O)Nc2cccnc2)S(=O)(=O)c2ccccc2)cc1Cl", "growth rescue (activation)": "inactive: 7.02%"}
{"compound": "O=C(Cn1nnc(-c2ccccc2)n1)N/N=C/c1cccc([N+](=O)[O-])c1O", "growth rescue (activation)": "inactive: -1.81%"}
{"compound": "O=C(COC(=O)c1ccc(S(=O)(=O)N2CCOCC2)cc1)NC1CCCCCCC1", "growth rescue (activation)": "inactive: 20.9%"}
{"compound": "CCOC(=O)COc1ccc(Br)cc1/C=C/c1[nH]c(=O)[nH]c(=O)c1[N+](=O)[O-]", "growth rescue (activation)": "inactive: -16.1%"}
{"compound": "CCCNC(=O)C1(C)CCCN(C(=O)/C=C/c2ccccc2)C1", "note": "(stereo not drawn)", "growth rescue (activation)": "inactive: -6.06%"}
{"compound": "COCCCNC(=O)c1cccc2c(=O)c(C)c(-c3ccccc3)oc12", "growth rescue (activation)": "inactive: -0.28%"}
{"compound": "CC1CCCCN1C(=O)CSc1nnc2c(n1)[nH]c1ccc(F)cc12", "note": "(stereo not drawn)", "growth rescue (activation)": "inactive: -1.54%"}
{"compound": "O=C(Oc1ccccc1)c1ccc(NC(=O)c2ccco2)cc1", "growth rescue (activation)": "inactive: -2.91%"}
{"compound": "CCn1c(SCC(=O)NNC(=O)c2ccc(C)cc2)nnc1-c1ccco1", "growth rescue (activation)": "inactive: -4.65%"}
{"compound": "C=CCn1c(O)c(N=NC(=O)c2ccccc2NS(=O)(=O)c2cccs2)c2ccccc21", "growth rescue (activation)": "inactive: -21%"}
{"compound": "CCN(CC)S(=O)(=O)c1ccc2[nH]cc(C(=O)NCCC3=CCCCC3)c(=O)c2c1", "growth rescue (activation)": "inactive: 18.2%"}
{"compound": "COc1ccc(NS(=O)(=O)c2ccc(NC(=O)c3ccccc3Br)cc2)nn1", "growth rescue (activation)": "inactive: 5.27%"}
{"compound": "C#CCN1C(=O)C(O)(c2c(C)[nH]c3ccccc23)c2ccccc21", "note": "(stereo not drawn)", "growth rescue (activation)": "inactive: -0.668%"}
{"compound": "CN(C)c1ccc(-c2nnc(SCC3CCCO3)n2C)cc1", "note": "(stereo not drawn)", "growth rescue (activation)": "inactive: 2.67%"}
{"compound": "CC1(Cc2cccc(C(N)=O)c2)C(=O)Nc2c(Cl)cccc21", "note": "(stereo not drawn)", "growth rescue (activation)": "inactive: -1.35%"}
{"compound": "O=C(NCc1ccncc1)c1csc([C@@H]2O[C@H](CO)[C@@H](O)[C@H]2O)n1", "growth rescue (activation)": "inactive: 10.8%"}
{"compound": "C/C(=N\\NC(=O)c1ccc(N2CCCC2=O)cc1)c1ccccc1", "growth rescue (activation)": "inactive: 9.12%"}
{"compound": "CC(C)(C)NCc1cc(Cl)ccc1OCc1cccs1", "growth rescue (activation)": "inactive: -3.22%"}
{"compound": "CCOCCCNC(=O)c1ccc2c(c1)ncn2-c1ccccc1OC", "growth rescue (activation)": "inactive: -0.714%"}
{"compound": "CC1(C(=O)NS(=O)(=O)c2ccccc2)CCN1C(=O)c1ccc(C2CCCCC2)cc1", "note": "(stereo not drawn)", "growth rescue (activation)": "inactive: 0.475%"}
{"compound": "COc1ccccc1NC(=O)Cc1nnc(SCC(=O)Nc2ccc(F)cc2F)n1C", "growth rescue (activation)": "inactive: 14.6%"}
{"compound": "Cc1ccc(CN2CCN(Cc3ccc4cc(F)ccc4n3)CC2CCO)o1", "note": "(stereo not drawn)", "growth rescue (activation)": "inactive: -4.77%"}
{"compound": "Cc1nc2cc(OC3(C)CCN(Cc4ccc(OC(F)(F)F)cc4)C3)ccc2s1", "note": "(stereo not drawn)", "growth rescue (activation)": "inactive: 10.5%"}
{"compound": "Cc1nnc(SCC(=O)N2CCN(c3ccccc3F)CC2)n1C1CC1", "growth rescue (activation)": "inactive: 5.09%"}
{"compound": "O=C(Nc1ccccc1N1CCOCC1)c1ccc(N2CCOCC2)c([N+](=O)[O-])c1", "growth rescue (activation)": "inactive: 13.1%"}
{"compound": "O=C(CNC(=O)c1ccc(N2C(=O)c3ccccc3C2=O)cc1)OCC(=O)c1cccc2ccccc12", "growth rescue (activation)": "inactive: 7.63%"}
{"compound": "Cc1cc(C)c(S(C)(=O)=O)c(S(=O)c2ccc(Cl)cc2)n1", "note": "(stereo not drawn)", "growth rescue (activation)": "inactive: 16.8%"}
{"compound": "CCCCN1CCCCC1(C)C(=O)NCc1cccc(OC)c1", "note": "(stereo not drawn)", "growth rescue (activation)": "inactive: -4.82%"}
{"compound": "C/C(=N\\NC(=O)c1ccc(N2CCCC2=O)cc1)c1ccncc1", "growth rescue (activation)": "inactive: -16.4%"}
{"compound": "CC1=NOC(=O)/C1=C/c1ccc(O)c(Br)c1", "growth rescue (activation)": "inactive: -9.48%"}
{"compound": "CS(=O)(=O)c1ccc(Cl)c(NC(=O)CN2CCN(C(=O)c3cccs3)CC2)c1", "growth rescue (activation)": "inactive: 1.18%"}
{"compound": "O=C(NC(=S)N1CCc2ccccc21)c1ccco1", "growth rescue (activation)": "inactive: 5.75%"}
{"compound": "O=C1CN(Cc2ccccc2)CC(=O)N1", "growth rescue (activation)": "inactive: 1.17%"}
{"compound": "CCOC(=O)C(=O)Nc1cccc(C(=O)OCC)c1", "growth rescue (activation)": "inactive: 4.31%"}
{"compound": "CCOC(=O)C1C(CC)NC(=S)NC1(C)O", "note": "(stereo not drawn)", "growth rescue (activation)": "inactive: 4.73%"}
{"compound": "COc1cc(/C=C2\\NC(=S)N(C)C2=O)ccc1O", "growth rescue (activation)": "inactive: 13.2%"}
{"compound": "O=C(NCc1cccnc1)C(=O)Nc1nc(C23CC4CC(CC(C4)C2)C3)cs1", "growth rescue (activation)": "inactive: -12.5%"}
{"compound": "C[C@]12CC[C@H](O)CC1=CCC1C2CC[C@@]2(C)C1CCC21OCCO1", "note": "(stereo partly drawn)", "growth rescue (activation)": "inactive: 0.614%"}
{"compound": "CCCCn1c(N2CCCC2)nc2c1c(=O)[nH]c(=O)n2C", "growth rescue (activation)": "inactive: -7.11%"}
{"compound": "CC(C)c1ccccc1-n1c(SCC(=O)N2CCN(c3ccccc3)CC2)nnc1-c1cccnc1", "growth rescue (activation)": "inactive: 8.26%"}
{"compound": "Cc1ccccc1C(=O)Nc1cccc(NC(=O)c2cccnc2)c1", "growth rescue (activation)": "inactive: 2.95%"}
